{
  "source": "patent US4225619A",
  "about": "“Substituted fluoracylresorcinols” (Boehringer Ingelheim GmBH, priority 1976, dated 1980)",
  "biological_target": "glucose-6-phosphate-dehydrogenase",
  "test": "Inhibition of glucose-6-phosphate-dehydrogenase (G6PDH)",
  "type": "biochemical",
  "conditions": "for G6PDH-inhibition Ed50, Immediate Inhibition: 25° C. for 5 minutes preincubation; for G6PDH-inhibition Ed50, Inhibition of Incubation: 37° C. for 60 minutes preincubation",
  "description": "Measurement of the inhibition of the glucose-6-phosphatedehydrogenase\nThe equilibrium was observed:\nGlucose-6-phosphate+NADP^+ G6-DH gluconic\nacid-6-phosphate+NADPH+H^+\n(NADP=nicotinamide-adenine-dinycleotide-phosphate, G6P-DH=gluconic acid-6-phosphate-dehydrogenase)\nThe formation velocity of NADPH is a measure for the enzyme activity; it may be observed by means of the extinction increase at 340, 334 or 366 nm per unit of time.\n0.025 ml of glucose-6-phosphate-dehydrogenase (Boehringer Mannheim) were filled up to 10 ml of distilled water (solution I). 100 mgm of nicotinamide-adenine-dinucleotide-phosphate were dissolved in 13 ml of distilled water (solution II). 47.2 mgm of glucose-6-phosphate were dissolved in further 10 ml of distilled water (solution 3). Simultaneously a buffer solution (solution IV) was prepared as follows: 0.28 gm of triethanolamine-hydrochloride and 1.461 gm of ethylene diaminotetraacetic acid-disodium salt were dissolved in 1 liter of distilled water and adjusted to a pH of 7.6 with sodium hydroxide solution. The substance under test was dissolved in dimethyl formamide or ethanol (solution V). Tested concentrations: 50; 25; 12.5; 6.25; 3.125; 1.56 and 0.78 μg/ml.\n0.1 ml of solution I, 0.1 ml of solution II, 2.67 ml of solution IV and 0.03 ml of solution V were mixed and kept at 25° C. for 5 minutes. Then 0.1 ml of solution III was added, mixed and the alteration of extinction was determined spectrophotometrically at 366 nm for 3 minutes.\n0.1 ml of solution I, 0.1 ml of solution II, 2.67 ml of solution IV and 0.03 ml of solution V were mixed and kept at 37° C. for 60 minutes. Then 0.1 ml of solution III was added, mixed and the alteration of extinction was measured spectrophotometrically at 366 nm for 3 minutes.\nThe inhibitory values were calculated from the average values of three measurements (alteration of extinction per minute) compared with controls, which received the pure solvent as the inhibitory solution. Then the ED50 was calculated according to Reed and Muench from the inhibitory values for the various concentrations.",
  "note": "At least one compound was matched to its structure with a doubt left.",
  "data": [
    {"compound": "CCCCCCc1cc(C(=O)C(F)(F)F)c(O)cc1O", "note": "[Compound E, 2,4-Dihydroxy-5-n-hexyl-trifluoroacetophenone]", "values": [
      {"measurement": "G6PDH-inhibition Ed50, Immediate Inhibition", "value": 24.1, "unit": "µg/mL"},
      {"measurement": "G6PDH-inhibition Ed50, Inhibition of Incubation", "value": 22.3, "unit": "µg/mL"}
    ]},
    {"compound": "O=C(c1ccc(O)c(C2CCCCCC2)c1O)C(F)(F)F", "note": "[O, 2,4-Dihydroxy-3-cycloheptyl-trifluoroacetophenone]", "values": [
      {"measurement": "G6PDH-inhibition Ed50, Immediate Inhibition", "value": 10.2, "unit": "µg/mL"},
      {"measurement": "G6PDH-inhibition Ed50, Inhibition of Incubation", "value": 6.9, "unit": "µg/mL"}
    ]},
    {"compound": "CCCCCCCCC(C)c1c(O)ccc(C(=O)C(F)(F)F)c1O", "note": "(stereo not drawn) [M]", "values": [
      {"measurement": "G6PDH-inhibition Ed50, Immediate Inhibition", "value": 2.8, "unit": "µg/mL"},
      {"measurement": "G6PDH-inhibition Ed50, Inhibition of Incubation", "value": 2.9, "unit": "µg/mL"}
    ]},
    {"compound": "O=C(c1ccc(O)c(C2CCCCCCCCCCC2)c1O)C(F)(F)F", "note": "[L, 2,4-Dihydroxy-3-cyclododecyl-trifluoroacetophenone]", "values": [
      {"measurement": "G6PDH-inhibition Ed50, Immediate Inhibition", "value": 4.0, "unit": "µg/mL"},
      {"measurement": "G6PDH-inhibition Ed50, Inhibition of Incubation", "value": 3.25, "unit": "µg/mL"}
    ]},
    {"compound": "O=C(c1ccc(O)c(C2CCCC2)c1O)C(F)(F)F", "note": "[N, 2,4-Dihydroxy-3-cyclopentyl-trifluoroacetophenone]", "values": [
      {"measurement": "G6PDH-inhibition Ed50, Immediate Inhibition", "value": 10.6, "unit": "µg/mL"},
      {"measurement": "G6PDH-inhibition Ed50, Inhibition of Incubation", "value": 6.5, "unit": "µg/mL"}
    ]},
    {"compound": "CCCCCCCCCc1cc(C(=O)C(F)(F)F)c(O)cc1O", "note": "[J, 2,4-Dihydroxy-5-n-nonyl-trifluoroacetophenone]", "values": [
      {"measurement": "G6PDH-inhibition Ed50, Immediate Inhibition", "value": 8.5, "unit": "µg/mL"},
      {"measurement": "G6PDH-inhibition Ed50, Inhibition of Incubation", "value": 3.62, "unit": "µg/mL"}
    ]}
  ]
}
